The values that follow come from PubChem BioAssay AID485344 (National Center for Advancing Translational Sciences (NCATS), 2010).

In all, about 340,000 compounds went through this assay and about 6,900 (2%) were called active. Cut-off read from the data, not from the text of the source: active = inhibition above about 30%; inactive = below that, where a call was filed. Only a part is listed here, and it is no random draw. Where no call is shown, the source filed none.

The target of this assay is D(2) dopamine receptor (Homo sapiens) (UniProt P14416). Kind of assay: HTS Assay for Allosteric Antagonists of the Human D2 Dopamine Receptor: Primary Screen for Antagonists. Note: 0% is about no effect. To be noted: HEK293 TREx D2 cells, calcium flux, dopamine EC80; at 10 µM; stronger effect = higher value. In short, it runs like this: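 Dopamine at EC80 is the agonist stimulus; test compounds precede it by 180 s. Calcium flux read kinetically in a force-coupled, inducible HEK293 T-REx D2 cell line.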
UniProt P14416, sequence (P14416 whole entry, looked up): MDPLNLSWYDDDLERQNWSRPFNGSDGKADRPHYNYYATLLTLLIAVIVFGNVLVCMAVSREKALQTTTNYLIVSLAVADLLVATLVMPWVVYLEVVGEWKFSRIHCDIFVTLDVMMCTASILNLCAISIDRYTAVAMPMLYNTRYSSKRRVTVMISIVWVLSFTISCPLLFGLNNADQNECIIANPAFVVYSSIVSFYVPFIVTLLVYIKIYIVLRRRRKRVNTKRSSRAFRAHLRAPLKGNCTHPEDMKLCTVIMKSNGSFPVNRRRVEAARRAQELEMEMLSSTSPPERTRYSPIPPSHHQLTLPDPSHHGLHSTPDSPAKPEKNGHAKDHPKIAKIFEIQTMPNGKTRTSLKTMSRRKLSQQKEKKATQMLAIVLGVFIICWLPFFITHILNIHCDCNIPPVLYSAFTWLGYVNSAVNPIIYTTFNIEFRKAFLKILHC
(In general: Calcium flux is commonly read through the fluorescence of an indicator in the cells.)
What is called inhibition is the drop in the measured response relative to a control, in per cent. For `CCOc1cccc2cc(-c3nc(-c4ccccc4C)no3)c(=O)oc12`, the inhibition was found to be 1.63%.
As for `COc1ccc(COc2ccccc2C(=O)NCc2ccccc2)cc1F`, the figure is active: 41.5%; as for `O=C(Nc1ccc(Cl)cc1)C1CCCN(S(=O)(=O)c2ccc3[nH]c(=O)ccc3c2)C1` (configuration not stated), -9.14%; as for `Cc1cc(F)ccc1NC(=O)CCS(=O)(=O)c1ccc2c(c1)NC(=O)CO2`, 24.3%.
As for `CCOC(=O)c1ccccc1NC(=O)CSc1cn(CC(=O)N2CCCCC2)c2ccccc12`, the figure is 6.9%; as for `COc1ccc(NCc2cc3cc4c(cc3n(CC(=O)Nc3ccc(F)cc3F)c2=O)OCO4)cc1`, -4.52%.
Then `CCc1ccccc1NS(=O)(=O)c1ccc(OC)c2ncccc12`, with -20.6%; and `COc1ccc2c(C)c(CCC(=O)NCCc3ccccc3OC)c(=O)oc2c1`, with 12.5%.
As for `CCOC(=O)c1cnc2c(Cl)cccc2c1NCCN1CCOCC1`, the inhibition is -2.07%.
Then `COC(=O)CCSc1nc2sc3c(c2c(=O)n1Cc1ccccc1)CCC(C(C)(C)C)C3` (configuration not stated), with 8.87%; and `CC1=C(C(=O)OC2CCCCCC2)C(c2c(F)cccc2Cl)CC(=O)N1` (configuration not stated), with 8.47%; and `CCN(CCCNC(=O)c1c(C)oc2ncn(CC(C)C)c(=O)c12)Cc1ccccc1`, with 13.7%.
As for `Cc1ccc(Cl)cc1NC(=O)c1oc2c(c1C)-c1[nH]ncc1CC2`, the inhibition was 0.394%.
As to `COc1ccc(N(Cc2cccs2)C(=O)COc2cccc(Cl)c2)cc1`, the inhibition came to 12.3%.
`CCOC(=O)c1c(-c2ccccc2)oc2ccc(OCC(=O)O)cc12`: the inhibition is active: 32.8%.
Take `C=CCNc1nc(N2CCCCC2)c(C#N)c2c1CN(Cc1ccccc1)CC2`: the inhibition was active: 72.4%.
As for `Cn1c(=O)n(-c2ccc(F)c(Cl)c2)c(=O)c2sc3ccccc3c21`, the figure is -5.92%; as for `CC(C)C[C@@H](CO)N1CCN(CCCc2ccccc2)CCC1=O`, active: 34.7%.
As for `CCOC(=O)c1c(Nc2ccc(C)cc2)nnc(-c2ccccc2)c1-c1ccccc1`, the figure is 3.46%; as for `COc1ccc(N2CCN(S(=O)(=O)c3ccc4c(c3)CC(C)N4C(C)=O)CC2)cc1` (configuration not stated), 3.44%; as for `COc1ccccc1N1CCN(CCN(C(=O)c2ccc(F)cc2)c2ccccn2)CC1`, active: 60.6%.
On to `COc1ccc(NC(=O)C2Cc3ccccc3N2C(=O)c2ccccc2)c(OC)c1` (configuration not stated), for which the inhibition worked out at 3.76%.
As for `CCOc1ccccc1NC(=O)c1cc2c(Cl)nc3ccccc3c2s1`, the figure is 1.06%; as for `Cc1ccc(-n2ncc3c(NCCCN4CCOCC4)ncnc32)cc1`, -4.99%.
For the molecule `CCOc1cc(C2C(C(=O)OC)=C(C)NC3=C2C(=O)c2ccccc23)cc(Cl)c1O` (configuration not stated), the inhibition is -1.52%.
Then `O=C(CCC1N=C2c3ccccc3N=C(SCc3ccccc3F)N2C1=O)NC1CCCCC1` (configuration not stated), with 12.8%; and `COc1cccc(-n2c(=O)c3c(C)c(C(=O)N(C)C)sc3n(Cc3ccc(F)cc3Cl)c2=O)c1`, with -14.2%.
In the case of `CCn1c2ccccc2c2nnc(N3CCN(c4cc(C)ccc4C)CC3)nc21`, the inhibition worked out at 8.41%.
Then `Fc1ccc(-c2nc(Nc3cccc(Cl)c3)nc3c2COc2ccccc2-3)cc1`, with 12.2%; and `COc1ccc(NC(=O)CN(Cc2ccccc2)S(=O)(=O)c2ccc(C)cc2)cc1Cl`, with 0.771%; and `COC(=O)c1ccc(CNC(=O)C(C)N=C2NS(=O)(=O)c3ccccc32)cc1` (configuration not stated), with active: 44.3%.
As for `CCCCNc1nc(Oc2ccc(=O)[nH]n2)nc(N(C)C)n1`, the figure is 17.6%; as for `C=C(C)Cn1c(=O)c2c(nc3n2CCN3c2ccc(CC)cc2)n(C)c1=O`, -7.17%; as for `CSc1ncc(C(=O)Nc2ccccc2C(=O)c2ccccc2)c(C(F)(F)F)n1`, 2.33%.
Then `CCc1nn(CC(=O)NCCCN(CC)CC)c(=O)c2cc3sc(C)cc3n12`, with -0.399%; and `Fc1ccc(-n2cc(-c3ccccc3)c3c(NC4CCCCC4)ncnc32)cc1`, with 8.02%.
As for `CCOC(=O)c1cccc(NC(=O)c2cc3c(=O)n(Cc4ccccc4)ccc3nc2C)c1`, the inhibition was 5.54%.
`CCOC(=O)C1CCCN(S(=O)(=O)c2ccc3c(c2)CCCN3C(C)=O)C1` (configuration not stated): the inhibition was determined as 7.07%.
As for `COc1ccc(CCNC(=O)c2cc3c(-c4ccccc4F)nn(C)c3s2)c(OC)c1`, the figure is -13.9%.
Take `O=C(Nc1ccc(Br)cc1F)c1cc(S(=O)(=O)NCc2ccc(F)cc2)ccc1F`: the inhibition was -23.8%.
Then `NC(=O)c1nn(CC(=O)Nc2cccc(S(=O)(=O)N3CCCC3)c2)c(=O)c2ccccc12`, with active: 44.4%; and `COc1ccc(NC(=O)c2cc3c(s2)-c2c(C)cccc2OC3)c(OC)c1`, with -0.16%.
As for `CCCc1cc(=O)[nH]c(Nc2cccc(Cl)c2Cl)n1`, the figure is 6.12%; as for `CCOc1ccc(-n2c(SCc3ccc(C(=O)OC)o3)nc3c([nH]c4ccccc43)c2=O)cc1`, 4.62%.
As for `CCOc1ccc(-c2cc(OC(=O)c3ccc(F)cc3)c3c(C)oc(C)c3c(=O)c2)cc1`, the figure is 15.9%; as for `CCN1C(=O)c2ccccc2Sc2ccc(NC(C)=O)cc21`, -2.74%; as for `COc1ccccc1-c1noc(-c2ccc(N3CCC(C)CC3)c([N+](=O)[O-])c2)n1`, 3.68%.
As for `COc1cc(C(=O)Nc2cc3c(cc2C)n(C)c(=O)c(=O)n3C)cc(OC)c1OC`, the inhibition is -1.79%.
Take `CCC(=O)N1CCc2cc(S(=O)(=O)NC(Cc3ccccc3)C(=O)Nc3ccc(C)cc3)ccc21` (configuration not stated): the inhibition was determined as 1.09%.
As for `Cc1ccc(NC(=O)c2sc3nc(-c4cc5ccccc5oc4=O)[nH]c(=O)c3c2C)c(C)c1`, the figure is 8.99%.
As for `O=C(CN1CCCC1)Nc1cc(C(F)(F)F)ccc1Cl`, the figure is active: 81.9%.
`CC(C)(C)c1nn(-c2ccccc2)c2nc(Cl)c(C=O)cc12`: the inhibition is active: 32.1%.
Regarding `CCOc1ccc(C(=O)Nc2cccc(OCc3cc(=O)n4ccccc4n3)c2)cc1`, the inhibition was -7.84%.
Take `O=S(=O)(Nc1cccc(-c2ccc(N3CCCCCC3)nn2)c1)c1ccc(F)cc1`: the inhibition is -7.2%.
For `CCOC(=O)c1[nH]c(C)c(CCC(=O)Nc2ccc(C(C)=O)cc2)c1C`, the inhibition is -23.6%.
As to `Cc1ccccc1NS(=O)(=O)c1nnc(NC(=O)c2ccc(Cl)cc2)s1`, the inhibition was -7.96%.
In the case of `CCOc1cccc(CNCCNC(=O)c2nonc2N)c1`, the inhibition was determined as 20.7%.
As for `O=C1C(c2cccc(Br)c2)N(CCc2ccccc2)C(=O)CN1C1CCCCC1` (configuration not stated), the figure is 5.86%; as for `Cc1cccc(CNS(=O)(=O)c2csc(C(N)=O)c2)c1`, 4.4%.
Then `COc1ccc(C(=O)Oc2c(Sc3ccc(Cl)cc3)c(C)nn2C(C)(C)C)cc1OC`, with 1.46%; and `COc1ccc(NC(=O)CCCn2c(=O)c3cccn3c3ccccc32)c(OC)c1`, with 28.1%; and `O=C(NCCc1csc(-c2ccc(C(F)(F)F)cc2)n1)C(=O)Nc1cc(F)ccc1F`, with -15.3%.
